Assay results reported in PubChem BioAssay AID624172 (National Center for Advancing Translational Sciences (NCATS), 2012).
The campaign covered roughly 380,000 compounds. About 25 (0.007%) were called active. This list was built around the results that the source calls inconclusive (neither active nor inactive); the mix of calls is not that of the screen. The call rests on the fitted dose curve; in most records, active means well fitted activation curve with a large enough effect; inconclusive means small, poorly fitted or top-dose-only effect; inactive means no such curve, though single readings can be large or run the other way. Potencies of inconclusive entries are left out as doubtful fits.

The compounds below were run against Glucagon-like peptide 1 receptor (Homo sapiens) (UniProt P43220) (assay: qHTS of GLP-1 Receptor Agonists). Settings: HEK293 GLP-1R CRE-luciferase, luminescence, 4-6 h, cells express a hypersensitive GLP-1R form; activation: at 45.6 µM (top of the series) unless noted.
Potency means the concentration at half of the fitted maximal effect; tags describe the fitted curve by direction and shape.
Wherever activation is given: % of control where 0% means no effect.

Chain of UniProt P43220 (P43220 whole entry, looked up): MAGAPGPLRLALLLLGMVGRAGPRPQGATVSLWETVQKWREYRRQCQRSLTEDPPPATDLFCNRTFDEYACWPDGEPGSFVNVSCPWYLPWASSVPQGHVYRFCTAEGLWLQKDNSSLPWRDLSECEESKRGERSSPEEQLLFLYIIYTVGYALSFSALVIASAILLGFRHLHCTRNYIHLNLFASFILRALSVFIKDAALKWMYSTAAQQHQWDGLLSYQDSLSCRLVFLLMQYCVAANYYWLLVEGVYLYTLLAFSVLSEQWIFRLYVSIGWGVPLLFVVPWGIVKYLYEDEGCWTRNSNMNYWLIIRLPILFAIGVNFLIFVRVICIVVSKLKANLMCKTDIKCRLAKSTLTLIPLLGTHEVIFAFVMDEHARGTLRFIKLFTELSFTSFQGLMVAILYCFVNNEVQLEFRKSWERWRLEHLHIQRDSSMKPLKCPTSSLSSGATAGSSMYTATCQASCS

Row | Structure (SMILES) | activation | Potency
1 | Cc1nc(S(=O)(=O)N(C)c2ccccc2)c(C#N)c(C)c1Cl | inactive: -7.42% | –
2 | CC(C)(C)C1CCc2c(sc(NC(=O)CSc3ncn[nH]3)c2C#N)C1 (stereo not given) | – | inconclusive [activator, single point]
3 | Cc1cccc(NC(=S)N/N=C/c2ccc([N+](=O)[O-])s2)c1 | inactive: -9.48% | –
4 | COCCN(CCOC)C(=O)c1cc2sc3ccccc3c2s1 | – | inconclusive [activator, single point]
5 | Cc1c(/C=N/NC(N)=O)c2ccccn2c1C(=O)c1ccncc1 | – | inconclusive [activator, single point]
6 | COc1ccc(CCN(C)Cc2nc(Cc3ccc(OC)c(OC)c3)no2)cc1OC | – | inconclusive [activator, partial curve, poor fit]
7 | COc1ccc(/C=C2/C(=O)OCc3cc(OC)c(OC)cc32)cc1 | – | inconclusive [activator, full curve]
8 | COc1ccc(N(CC(=O)Nc2ccc3c(c2)OCO3)S(=O)(=O)c2ccc(C)cc2)cc1OC | inactive: 32.2% | –
9 | COc1cccc(C2CC(=O)Nc3cc(OC)c(OC)c(OC)c32)c1OC (stereo not given) | – | inconclusive [activator, partial curve, poor fit]
10 | CCC(CC)C(=O)N1CCc2cc(OC)c(OC)cc2C1COc1ccc(C(=O)OC)cc1 (stereo not given) | – | inconclusive [activator, full curve]
11 | CCOC(=O)c1ccc(N2C(=O)c3n[nH]c(-c4cccs4)c3C2c2cccc(OC)c2)cc1 (stereo not given) | inactive: -4.53% | –
12 | COc1ccc(/C=N/NC(=O)c2[nH]c3ccc(Br)cc3c2-c2ccccc2)cc1 | – | inconclusive [activator, partial curve, poor fit]
13 | CC1(C)C(CSc2nc3ccccc3[nH]2)C1(Cl)Cl (stereo not given) | – | inconclusive [activator, partial curve, poor fit]
14 | COC(=O)c1ccc(NC(=O)c2cccnc2)cc1 | inactive: 2.63% | –
15 | Cc1cccc(N(C)S(=O)(=O)c2ccc3[nH]cc(C(=O)N4CCOCC4)c(=O)c3c2)c1 | inactive: -20.1% | –
16 | COc1ccccc1N1CCN(CC(=O)Nc2cc(F)ccc2C)CC1 | inactive: 6.2% | –
17 | Cc1nc(SCC(=O)N(CC(C)C)C2CCS(=O)(=O)C2)c2c(C)c(C)sc2n1 (stereo not given) | – | inconclusive [activator, single point]
18 | N=c1c2c3c(sc2ncn1CCN1CCOCC1)CCCC3 | – | inconclusive [activator, single point]
19 | c1ccc(Oc2c3ccccc3nc3ccccc23)cc1 | – | inconclusive [activator, single point]
20 | N#Cc1cnn2c(-c3ccc(Cl)cc3Cl)ccnc12 | inactive: 10.6% | –
21 | COc1ccccc1N1CCN(/N=C\c2sccc2C)CC1 | – | inconclusive [activator, partial curve, poor fit]
22 | COc1ccc2cc(CNc3ccccc3)c(=O)n(CC(=O)Nc3ccc(C(C)=O)cc3)c2c1 | inactive: 3.25% | –
23 | Cc1ccc(N=Nc2c(N)n[nH]c2N)cc1 | inactive: 18.3% | –

Row | Structure (SMILES) | activation | Potency
24 | O=C(NCc1ccccc1)c1ccc(Br)o1 | inactive: 0.915% | –
25 | COc1cc(/C=N/NC(=O)c2ccc(CN3C(=O)c4cccc5cccc3c45)cc2)cc(OC)c1O | – | inconclusive [activator, partial curve]
26 | CC(C)(C)NC[C@@H](O)COc1ccccc1C1CCCC1 | inactive: 4.94% [at 19.8 µM] | –
27 | CC(CCc1ccccc1)NCC(O)c1cccc([N+](=O)[O-])c1 (stereo not given) | inconclusive: 47.2% [activator] | –
28 | CCN(c1ccccc1)S(=O)(=O)c1ccc(C(=O)Nc2nnc(CSC)o2)cc1 | inactive: -0.0283% | –
29 | N#Cc1nc(-c2ccco2)oc1N1CCc2ccccc2C1 | – | inconclusive [activator, full curve, poor fit]
30 | Cc1cccc(OCCC(=O)NCC(=O)Nc2c(C)cccc2C)c1 | – | inconclusive [activator, partial curve, poor fit]
31 | Cc1ccc(SCC(=O)c2c(C)nc3ccccn23)cc1 | – | inconclusive [activator, partial curve]
32 | Cc1cccc(C(=O)N2CCC[C@H]2C(=O)N2CCC[C@H]2C(=O)NCc2ccncc2)c1 | – | inconclusive [activator, single point]
33 | CN(C)NC(=S)NC1(C)CCS(=O)(=O)C1 (stereo not given) | inconclusive: 43.3% [activator] | –
34 | COC(=O)c1ccc(COC(=O)c2ccc(C)c(S(=O)(=O)N3CCCCC3)c2)cc1 | – | inconclusive [activator, partial curve, poor fit]
35 | CC1(C(=O)NS(=O)(=O)c2cccc(F)c2)CCN1C(=O)CCC1CCCC1 (stereo not given) | inactive: -3.07% | –
36 | C/C(=N/NC(=O)c1ccc(C(C)(C)C)cc1)c1ccccn1 | – | inconclusive [activator, single point]
37 | COc1ccc(C2=Nn3c(nnc3-c3ccccc3F)SC2)cc1OCC1CC1 | – | inconclusive [activator, partial curve, poor fit]
38 | COc1ccccc1-c1nnc(-c2ccc(N3CCOCC3)cc2)o1 | – | inconclusive [activator, single point]
39 | N#Cc1cc(C(=O)c2ccccc2O)cn(-c2nccs2)c1=O | inactive: -0.581% | –
40 | CCN(CC)c1ncnc2c1cnn2Cc1ccc(C)cc1 | – | inconclusive [activator, partial curve]
41 | CCCC(C)C(=O)Nc1nnc(CCc2ccccc2)s1 (stereo not given) | – | inconclusive [activator, partial curve, poor fit]
42 | O=C(N/N=C/c1ccc(O)c(O)c1)c1cccc(S(=O)(=O)N2CCCC2)c1 | inactive: 5.94% | –
43 | Nc1nc(N)nc(-c2cc(Cl)ccc2Cl)n1 | – | inconclusive [activator, single point]
44 | c1cn2c(Nc3ccc4c(c3)OCCO4)c(-c3ccc(N4CCOCC4)cc3)nc2cn1 | – | inconclusive [activator, single point]
45 | CCOCCCNC(=O)c1cc(Cl)c(NC(=O)C2=C(C)OCCS2)cc1OC | – | inconclusive [activator, single point]
